Results: the BET-seq Pho4 binding data (Le et al. 2018)
This is one part of the list. Values were computed here from the reads of four pooled replicates and scatter widely.

The sequences below were run against T1, Pho4 (S. cerevisiae) (UniProt P07270) (assay: relative binding free energy (BET-seq); higher = weaker binding). Conditions: reference: library average.
T1 sequence: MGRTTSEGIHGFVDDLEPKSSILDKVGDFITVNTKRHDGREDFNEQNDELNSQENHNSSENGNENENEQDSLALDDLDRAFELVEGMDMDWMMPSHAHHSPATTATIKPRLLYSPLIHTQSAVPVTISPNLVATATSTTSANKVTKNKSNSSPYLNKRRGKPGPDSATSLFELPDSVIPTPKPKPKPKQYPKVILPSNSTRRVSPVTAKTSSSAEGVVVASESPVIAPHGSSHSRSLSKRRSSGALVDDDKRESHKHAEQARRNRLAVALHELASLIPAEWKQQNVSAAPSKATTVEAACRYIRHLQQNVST

Sequence | relative binding free energy [kcal/mol]
GGAGTCACGTGTGGTC | 0.16
TAGAGCACGTGCGTTG | -0.13
AGGATCACGTGTGGGA | 0.35
GTGTACACGTGTTCGT | 0.14
GTGGACACGTGGTTAA | 0.07
CGGGTCACGTGGCTCG | 0.06
TGGGCCACGTGCTTGG | -0.18
TTCGGCACGTGGGTAG | -0.07
AGTAGCACGTGTTCGT | -0.04
TGAAACACGTGTGTAA | 0.08
GTTCACACGTGCGGGT | 0.09
GGGGACACGTGTGAGT | 0.19
TTACGCACGTGAGTGG | 0.14
GTGTACACGTGCATGG | -0.07
TGGAGCACGTGGTATA | -0.07
TGTTGCACGTGATGGA | 0.26
TTGCGCACGTGGATGT | -0.04
TATATCACGTGGTACG | 0.1
AGAATCACGTGGGAGG | 0.03
GCGGTCACGTGCGGTA | 0.17
AGTCTCACGTGGATTG | 0.11
ACTTTCACGTGGGGTT | 0.02
AAGTTCACGTGTTTCA | 0.42

Sequence | relative binding free energy [kcal/mol]
ATGCGCACGTGAGGAA | 0.19
CATGTCACGTGTGCTG | -0.02
TTCGTCACGTGGGAAG | -0.08
TTTCGCACGTGGAGAA | 0.16
AGGAACACGTGTTGAG | 0.02
GTGAGCACGTGGGCCG | -0.14
TGAGTCACGTGAGACG | 0.27
GTTTTCACGTGAGAGG | 0.46
TAGAGCACGTGTATCG | -0.07
GTATTCACGTGTAGTT | 0.25
TTTATCACGTGAGGTA | 0.26
AGACTCACGTGTAGGG | 0.15
AGGTTCACGTGACCGG | 0.46
TGGTGCACGTGTTTGC | -0.06
GGTTGCACGTGGGAGG | -0.1
TAAAGCACGTGGATGG | 0.05
AGTTCCACGTGTTGAT | 0.08
GGTAGCACGTGGTAGC | -0.05
GTTGTCACGTGCGTTA | 0.02
GTAGGCACGTGTCGTC | 0.02
GGAAGCACGTGAGCGT | 0.03
TGGATCACGTGCGTAT | 0.15
TGTCTCACGTGCGAGG | 0.15

Sequence | relative binding free energy [kcal/mol]
TCATTCACGTGGTGCG | 0.4
CGGGGCACGTGGATGC | -0.13
TTGTCCACGTGGGGCA | -0.19
TTAGTCACGTGGATGA | 0.16
GGTCGCACGTGGGTTT | -0.02
GTTTTCACGTGGGGAG | 0.21
GTTTTCACGTGGAGCT | 0.29
TTATGCACGTGATATG | -0.15
TCAAGCACGTGTATGG | -0.06
GTTTGCACGTGGTCGG | 0.07
TAGGCCACGTGTTATT | -0.01
GGGATCACGTGAACGG | 0.39
GGACACACGTGAGGGT | 0.19
AGGAGCACGTGAGAGT | 0.32
CCTATCACGTGGGGTG | 0.05
ACTAACACGTGTGGTG | 0
TGAATCACGTGGAAGG | 0.04
GTGAGCACGTGCGAGG | -0.07
TTTGGCACGTGCGAAG | -0.01
AAGAGCACGTGTGGCG | 0
ATCTACACGTGAAGGT | 0.32
TGTTTCACGTGTGGGA | 0.27
TCTGGCACGTGTTATT | -0.06

Sequence | relative binding free energy [kcal/mol]
GTGGGCACGTGGCGCG | -0.13
TTGTACACGTGTGAAG | 0.11
GACGTCACGTGGCAGG | 0.13
AGGTACACGTGGTCAG | -0.18
TTGATCACGTGTTTGC | 0.15
TAGTCCACGTGTGGGC | 0.12
GGTGGCACGTGATGTC | 0.15
TGAAGCACGTGTGGCT | 0.04
AAATACACGTGATGGT | 0.12
TCGGGCACGTGTGTGC | -0.01
TGAATCACGTGTAGTC | 0.42
AAGGCCACGTGTAGTG | 0.02
TGGGGCACGTGGGGGA | -0.2
ATGAACACGTGGTGAT | -0.09
GTGTTCACGTGGAACG | 0.29
AAGCTCACGTGTGAGT | 0.3
TGGGGCACGTGCGAAT | -0.09
AATATCACGTGATGGT | 0.2
TTAGTCACGTGAGTCG | 0.2
CTATTCACGTGGGGGT | 0.11
TTTGGCACGTGGGAGG | -0.12
TCGGTCACGTGGTTTC | 0.08
TTTGTCACGTGTGCGA | 0.07

Sequence | relative binding free energy [kcal/mol]
AGATTCACGTGATAAT | 0.38
TCGTGCACGTGTATGG | -0.11
CAGTGCACGTGAAGGT | 0.19
ATTGGCACGTGGTGGT | -0.11
GTGAGCACGTGCTGGG | -0.14
ATGAGCACGTGAGCGT | -0.03
GCATACACGTGGTGTG | 0
GCAGTCACGTGATGTT | 0.19
TTTCGCACGTGATTTG | 0.13
ATCAGCACGTGTATGT | 0
AGGCACACGTGTGGGA | 0
TTTGTCACGTGCAGTG | -0.05
TTTTTCACGTGTGACG | 0.38
ATGCGCACGTGGTACG | -0.16
TAAGGCACGTGTGGCA | -0.2
GAGGTCACGTGCAGGT | 0.2
CGTGTCACGTGCTAGG | 0.05
GGGTGCACGTGAAAAT | 0.29
TTATCCACGTGTAGGA | 0.09
AGTTTCACGTGTCGTT | 0.15
AGAGTCACGTGTGCGG | -0.01
AGGCTCACGTGGGAGC | 0.22
TTGCACACGTGGTTTA | -0.06
